Test results from PubChem BioAssay AID651820 (National Center for Advancing Translational Sciences (NCATS), 2012).
The campaign covered roughly 340,000 compounds. About 12,000 (3.5%) were called active. The shares of active, inactive and inconclusive entries below differ from those in the screen. Calls follow the shape of the dose curve; as a rule, active = well fitted inhibition curve with a large enough effect; inconclusive = small, poorly fitted or top-dose-only effect, or another doubt; inactive = no such curve, though single readings can be large or run the other way. Potencies of inconclusive entries are left out as doubtful fits.

assay: qHTS Assay for Inhibitors of Hepatitis C Virus (HCV); conditions: Huh7.5.1 HCVcc-Cre (HCVcc is cell-culture hepatitis C virus) infection, luciferase reporter, 44 h; activity change, negative = inhibition: at 41.8 µM (top of the series) unless noted
Summary of the method: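 Luciferase read-out (15 sec integration) after a 15 min room-temperature substrate step quantifies HCVcc-Cre infection. Cells, 1,000 per well, had compound added 4 h post-plating, then virus at ~0.5 moi, and were cultured 44 h.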
% is scaled to controls: 0 for no effect and ±100 for the full control effect; potency is read from the fitted curve at half-maximal effect; tags tell the direction and shape of the fitted curve.

Compound	Potency	activity change, negative = inhibition
COC(=O)c1c(NC(=O)COC(=O)c2ccccn2)sc(C)c1C	inconclusive [inhibitor, single point]	
Cc1ccc2nc(SCC(=O)Nc3cccnc3Cl)[nH]c2c1	inconclusive [inhibitor, partial curve]	
CCOC(=O)N1CCN(C(=O)CSc2ccc(-c3ccccc3OC)nn2)CC1	inconclusive [inhibitor, single point]	
N#Cc1ccc(C#Cc2ccc3oc4ccccc4c(=O)c3c2)cc1	inactive	
COc1ccccc1N(C)S(=O)(=O)c1ccc(C(=O)Nc2cccc(S(=O)(=O)N3CCOCC3)c2)cc1	active: 10 µM	
CCCCC(=O)N/N=C/c1ccc(Sc2cccc3cccnc23)o1	inconclusive [inhibitor, partial curve]	
CCC1CCCCN1S(=O)(=O)c1ccc2c(c1)CCN2C(=O)C1CCC1 (stereo not given)	inconclusive [inhibitor, single point]	
O=C(CSc1nnnn1-c1ccc(Cl)cc1)NC(=O)Nc1ccc2c(c1)OCCO2	inconclusive [inhibitor, partial curve]	
N=c1c2c(n(Cc3ccc(Br)cc3)c3c1CCC3)CCCC2	inconclusive [inhibitor, partial curve]	
C=CCNC(=O)C1CC1(c1cccc(C)c1)c1cccc(C)c1 (stereo not given)	inactive	
CCOC(=O)c1c(NC(=O)c2cccs2)sc(C(=O)N(C)C)c1C	active: 12.6 µM	
COc1ccc(/C=N/NC(=O)c2ccc(Br)o2)cc1Cn1cc([N+](=O)[O-])cn1	inconclusive [inhibitor, single point]	
COc1ccc(/C=N/NC(=O)c2ccc(CN3C(=O)c4cccc5cccc3c45)cc2)cc1O	inconclusive [inhibitor, single point]	
CN1C(=O)N(CC(=O)N2CCN(c3ncccn3)CC2)C(=O)C12CCCCC2	inactive	
CCN1CCN(c2ncnc3scc(-c4ccc(C)c(C)c4)c23)CC1	inconclusive [inhibitor, single point]	
CC(=O)c1c(C)oc2ccc(N(C(=O)C3CCCCC3)S(=O)(=O)c3cc([N+](=O)[O-])ccc3C)cc12	inconclusive [inhibitor, single point]	
O=C(c1ccccc1)c1ccccc1C(=O)c1ccccc1	inconclusive [inhibitor, full curve, poor fit]	
CCn1cc(CN2CCCC(C(=O)Nc3cccc(-c4cc5ccccc5[nH]4)c3)C2)c(C)n1 (stereo not given)	inconclusive [inhibitor, partial curve]	
CCOC(=O)C1CCCN(Cc2ccc(O)c(OC)c2)C1 (stereo not given)	inactive	
O=C(CCN1CCN(C/C=C/c2ccccc2)CC1)Nc1cccc(F)c1	inconclusive [inhibitor, single point]	
CCn1c(Oc2ccccc2C)nc2c1c(=O)n(C)c(=O)n2C	inactive	
Cc1ccc(NC(=O)c2ccc(CN3CCc4ccccc4C3)cc2)cc1	inconclusive [inhibitor, full curve]	

Compound	Potency	activity change, negative = inhibition
N/C(=N\NS(=O)(=O)c1ccccc1C(F)(F)F)c1ccccn1	inactive	
Cc1ccc(-n2ncc(C(=O)Nc3ccc(Cl)cc3)c2C2CCNCC2)cc1C	inconclusive [inhibitor, single point]	
COc1ccc(N(CC(=O)Nc2ccc(C(N)=O)cc2)S(=O)(=O)c2ccc(C)c([N+](=O)[O-])c2)cc1	inconclusive [inhibitor, single point]	
CC1(C)Cc2cccc(OCC(=O)Nc3ccccc3N3CCOCC3)c2O1	inconclusive [inhibitor, single point]	
Cc1onc(-c2ccccc2)c1C(=O)OCC(=O)Nc1cc(S(=O)(=O)N2CCOCC2)ccc1Cl	inconclusive [inhibitor, single point]	
COc1ccccc1C(=O)Nc1ccc(OCC(=O)N2CC(C)CC(C)C2)cc1 (stereo not given)	inconclusive [inhibitor, single point]	
COC(=O)c1c(NC(=O)CC2NCCNC2=O)sc2c1CCCC2 (stereo not given)	inconclusive [inhibitor, partial curve]	
COC(=O)c1cc(S(=O)(=O)N2CCN(Cc3ccccc3)CC2)c[nH]1	inconclusive [inhibitor, single point]	
COc1cc([N+](=O)[O-])ccc1NC(=O)CSc1nnc(C)c(C)n1	inconclusive [inhibitor, single point]	
O=C(COC(=O)c1cc([N+](=O)[O-])ccc1N1CCOCC1)c1ccc(F)cc1	inconclusive [inhibitor, full curve]	
CC(=O)Nc1ccc(NC(=O)c2ccc(C3SCC(=O)N3CCc3ccccc3)cc2)cc1 (stereo not given)	inconclusive [inhibitor, partial curve]	
CCOC(=O)C1=C(c2ccccc2)NC(=S)NC1c1ccc(Cl)c([N+](=O)[O-])c1 (stereo not given)	inconclusive [inhibitor, single point]	
C[C@H](CO)N1C[C@H](C)[C@@H](CN(C)C(=O)Nc2ccc3c(c2)OCO3)Oc2ccc(NC(=O)CCN3CCOCC3)cc2C1=O	inactive	
COCC1CCCCN1C(=O)c1ccc2oc(CCCc3ccccc3)nc2c1 (stereo not given)	inconclusive [inhibitor, single point]	
COc1ccc(-n2c(C)nc3c(cnn3-c3ccc(C)cc3)c2=O)cc1	inconclusive [inhibitor, single point]	
CCOc1ccccc1CNS(=O)(=O)c1ccc(-c2cnc(C3CC3)o2)cc1	inconclusive [inhibitor, partial curve]	
CC(=O)N1CCC2(CC1)C/C(=N\NC(=S)Nc1ccccc1C)c1cc(O)ccc1O2	inconclusive [inhibitor, single point]	
COc1ccc(CN(C)C(=O)COC(=O)c2cc([N+](=O)[O-])ccc2N2CCCC2)c(OC)c1OC	inconclusive [inhibitor, partial curve]	
Cc1cccc(-n2c(C)cc(/C=N/NC(N)=S)c2C)c1	inconclusive [inhibitor, single point]	
FC(F)(F)c1cccc(CN2CCC(c3cc(-c4cccs4)n[nH]3)CC2)c1	inconclusive [inhibitor, partial curve]	
CCn1cc(C=C2C(=O)N(C)C(=O)N(C)C2=O)c2ccccc21	inactive	
NS(=O)(=O)c1ccc(CCNC(=O)CN2CCN(Cc3cccc(C(F)(F)F)c3)CC2)cc1	inconclusive [inhibitor, single point]	

Compound	Potency	activity change, negative = inhibition
Cc1ccc(-c2noc(C3CCCN(C(=O)c4ccc(C(C)(C)C)cc4)C3)n2)o1 (stereo not given)	inconclusive [inhibitor, single point]	
COc1ccc(-c2cnc(SCC(=O)Nc3nc(C(C)(C)C)cs3)n2Cc2ccco2)cc1	active: 4.47 µM	
COC1C(OC(=O)c2ccc(C)[nH]2)C(O)C(Oc2ccc3c(O)c(NC(=O)c4ccc(O)c(CC=C(C)C)c4)c(=O)oc3c2Cl)OC1(C)C (stereo not given)	active: 1.58 µM	
O=C1Nc2ccccc2N=C(c2ccccc2)C1Br (stereo not given)	inactive	
Cc1nc(NC(=O)c2ccc(Cl)cc2)nc2cc3c(cc12)OCO3	inactive	
COc1cccc(C(=O)N(C)Cc2c(C)nn(C3CCS(=O)(=O)C3)c2C)c1 (stereo not given)	inactive	
Cc1cc(C(=O)Cn2nc(C(=O)O)c3ccccc3c2=O)c(C)n1-c1ccc(OC(F)F)cc1	inconclusive [inhibitor, single point]	
CCOC(=O)C1CCCN(S(=O)(=O)c2ccc(-c3cc(C)no3)s2)C1 (stereo not given)	inconclusive [inhibitor, partial curve]	
Cc1cc(=O)c(C(=O)Nc2cccc(C(=O)NC3CC3)c2)nn1-c1ccccc1Cl	inconclusive [inhibitor, partial curve]	
O=C(C1=C[C@@H](c2csc3ccccc23)C[C@@H](OCc2ccc(CO)cc2)O1)N1CCN(Cc2ccc3c(c2)OCO3)CC1		inactive: -8.86% [at 8.37 µM]
COc1ccc(Br)cc1CNC(=O)Cc1cccs1	inactive	
CCOC(=O)CSc1nc2cc3c(cc2cc1C#N)OCCO3	inactive	
COc1ccccc1NC(=O)c1ccc(NC(=O)CN2CCN(C(=O)c3ccco3)CC2)cc1	inconclusive [inhibitor, full curve]	
CC(=O)Nc1ccc(N/C=C/C(=O)c2ccccc2)cc1	inactive	
CC(C)OC(=O)CCCNc1ccc([N+](=O)[O-])cc1[N+](=O)[O-]	inactive	
COc1cc(/C=N/NC(=O)Cn2ccc(C(F)(F)F)n2)cc(OC)c1OC	inconclusive [inhibitor, single point]	
Clc1ccc(C(c2nnnn2CCc2ccccc2)N2CCSCC2)cc1 (stereo not given)	inconclusive [inhibitor, single point]	
COc1cccc(-c2c(-c3cc(OC)cc(OC)c3)n(C)c3ccc(-c4cnc(OC)nc4)cc23)c1	inconclusive [inhibitor, single point]	
CCN(CC)S(=O)(=O)c1ccc(N2CCOCC2)c(NC(=O)C2CC2)c1	inconclusive [inhibitor, partial curve, poor fit]	
Cc1ccccc1CSCC(=O)c1c(N)n(C)c(=O)n(C)c1=O	inconclusive [inhibitor, partial curve]	
O=C(N/N=C/c1ccccn1)c1cc(-c2cccc3ccccc23)n[nH]1	inactive	
